The list shows a part of the results.
Key:
HSkMC = human skeletal muscle cells; assay: cytotoxicity call (relative viability < 0.9); conditions: 10 µM
HepG2 = assay: cytotoxicity call (relative viability < 0.9); conditions: 10 µM
S. aureus RN4220 = assay: growth inhibition call (relative growth <= 0.2); conditions: 50 µM

| SMILES | cytotoxicity call (HSkMC) | cytotoxicity call (HepG2) | growth inhibition call (S. aureus RN4220) |
| --- | --- | --- | --- |
| CC(=O)N1CCN(C(=O)C(=O)NC[C@H](c2ccc(N(C)C)cc2)N2CCOCC2)CC1 | inactive | inactive | inactive |
| Nc1ncnc2c1ncn2[C@@H]1O[C@@H]2CO[P@@](=O)(S)O[C@@H]3[C@H](O)[C@@H](CO[P@@](=O)(S)O[C@H]2[C@H]1O)O[C@H]3n1cnc2c(N)ncnc21 | inactive | inactive | inactive |
| C[C@@H]1CN([C@H](C)CO)C(=O)c2c(c3ccccc3n2C)-c2ccccc2CO[C@@H]1CN(C)Cc1ccc(C(=O)O)cc1 | inactive | inactive | inactive |
| CCOC(=O)[C@H]1C/C=C/C[C@H](C(=O)OCC)C(=O)O[C@H]2[C@@H](OC)O[C@H](CO)[C@@H](OC(=O)Nc3ccccc3)[C@@H]2OC1=O | inactive | inactive | inactive |
| O=C1CCOCC1 | inactive | inactive | inactive |
| C[C@H]1CN([C@@H](C)CO)C(=O)c2cc(NS(=O)(=O)c3ccc(F)cc3)ccc2O[C@@H]1CN(C)Cc1ccc(Oc2ccccc2)cc1 | inactive | inactive | inactive |
| C[C@@H]1CN([C@H](C)CO)C(=O)CCCn2nncc2CO[C@@H]1CN(C)S(=O)(=O)c1cn(C)cn1 | inactive | inactive | inactive |
| C[C@@H]1CN([C@H](C)CO)C(=O)c2cc(NC(=O)Nc3ccccc3)ccc2O[C@H]1CN(C)Cc1ccc(-c2ccccc2)cc1 | inactive | active | inactive |
| C[C@H]1CCCCO[C@H](CN(C)S(=O)(=O)c2cccs2)[C@@H](C)CN([C@@H](C)CO)C(=O)c2cc(NS(=O)(=O)c3cn(C)cn3)ccc2O1 | inactive | inactive | inactive |

— the antibiotic and cytotoxicity screens of Wong et al. (2023)
